In the supplement of paper PMC11876631:
Changes are numbered by the printed parent chain. Names may count otherwise. ± gives the standard deviation of the averaged measurements. Laboratory Escherichia coli strains with one amino-acid change in an essential protein, pooled on minimal glucose agar with carbenicillin or gentamicin at twice the control MIC (plus kanamycin and chloramphenicol for the plasmids), 48 h. Fold change of barcode share against drug-free plates; higher = less susceptible. Active = above 20 in both replicates (the paper's putatively resistant). '<' = one read or none on drug, '>' = one read or none on a drug-free plate. Shares are relative, so most strains fall below 1 when a few take over. Listed are strains with at least 15 reads on both drug-free plates, and hits; most hits rest on fewer reference reads. Replicate rank correlation about 0.5. Edits are read from barcodes.

B1: hemC V171Q (protein)
chain: MLDNVLRIATRQSPLALWQAHYVKDKLMASHPGLVVELVPMVTRGDVILDTPLAKVGGKGLFVKELEVALLENRADIAVHSMKDVPVEFPQGLGLVTICEREDPRDAFVSNNYDSLDALPAGSIVGTSSLRRQCQLAERRPDLIIRSLRGNVGTRLSKLDNGEYDAIILAQAGLKRLGLESRIRAALPPEISLPAVGQGAVGIECRLDDSRTRELLAALNHHETALRVTAERAMNTRLEGGCQVPIGSYAELIDGEIWLRALVGAPDGSQIIRGERRGAPQDAEQMGISLAEELLNNGAREILAEVYNGDAPA
B2: hemD I32P (protein)
chain: MSILVTRPSPAGEELVSRLRTLGQVAWHFPLPEFSPGQQLPQLADQLAALGESDLLFALSQHAVAFAQSQLHQQDRKWPRLPDYFAIGRTTALALHTVSGQKILYPQDREISEVLLQLPELQNIAGKRALILRGNGGRELIGDTLTARGAEVTFCECYQRCAIHYDGAEEAMRWQAREVTMVVVTSGEMLQQLWSLIPQWYREHWLLHCRLLVVSERLAKLARELGWQDIKVADNADNDALLRALQ
B3: hemD L56A (protein)
chain: B2 chain with P32I, L56A
B4: hemD L56W (protein)
chain: B2 chain with P32I, L56W
B5: hemG I53A (protein)
chain: MKTLILFSTRDGQTREIASYLASELKELGIQADVANVHRIEEPQWENYDRVVAGASIRYGHYHSAFQEFVKKHATRLNSMPSAFYSVNLVARKPEKRTPQTNSYARKFLMNSQWRPDRCAVIAGALRYPRYRWYDRFMIKLIMKMSGGETDTRKEVVYTDWEQVANFAREIAHLTDKPTLK
B6: hemG I53W (protein)
chain: B5 chain with A53W
B7: hemG I53Q (protein)
chain: B5 chain with A53Q
B8: hemL V206W (protein)
chain: MSKSENLYSAARELIPGGVNSPVRAFTGVGGTPLFIEKADGAYLYDVDGKAYIDYVGSWGPMVLGHNHPAIRNAVIEAAERGLSFGAPTEMEVKMAQLVTELVPTMDMVRMVNSGTEATMSAIRLARGFTGRDKIIKFEGCYHGHADCLLVKAGSGALTLGQPNSPGVPADFAKYTLTCTYNDLASVRAAFEQYPQEIACIIVEPWAGNMNCVPPLPEFLPGLRALCDEFGALLIIDEVMTGFRVALAGAQDYYGVVPDLTCLGKIIGGGMPVGAFGGRRDVMDALAPTGPVYQAGTLSGNPIAMAAGFACLNEVAQPGVHETLDELTTRLAEGLLEAAEEAGIPLVVNHVGGMFGIFFTDAESVTCYQDVMACDVERFKRFFHMMLDEGVYLAPSAFEAGFMSVAHSMEDINNTIDAARRVFAKL
B9: hemL V206P (protein)
chain: B8 chain with W206P
B10: hemL V99P (protein)
chain: B8 chain with V99P, W206V
B11: argG L364Q (protein)
chain: MTTILKHLPVGQRIGIAFSGGLDTSAALLWMRQKGAVPYAYTANLGQPDEEDYDAIPRRAMEYGAENARLIDCRKQLVAEGIAAIQCGAFHNTTGGLTYFNTTPLGRAVTGTMLVAAMKEDGVNIWGDGSTYKGNDIERFYRYGLLTNAELQIYKPWLDTDFIDELGGRHEMSEFMIACGFDYKMSVEKAYSTDSNMLGATHEAKDLEYLNSSVKIVNPIMGVKFWDESVKIPAEEVTVRFEQGHPVALNGKTFSDDVEMMLEANRIGGRHGLGMSDQIENRIIEAKSRGIYEAPGMALLHIAYERLLTGIHNEDTIEQYHAHGRQLGRLLYQGRWFDSQALMLRDSLQRWVASQITGEVTLEQRRGNDYSILNTVSENLTYKPERLTMEKGDSVFSPDDRIGQLTMRNLDITDTREKLFGYAKTGLLSSSAASGVPQVENLENKGQ
B12: argH M246Q (protein)
chain: MALWGGRFTQAADQRFKQFNDSLRFDYRLAEQDIVGSVAWSKALVTVGVLTAEEQAQLEEALNVLLEDVRARPQQILESDAEDIHSWVEGKLIDKVGQLGKKLHTGRSRNDQVATDLKLWCKDTVSELLTANRQLQSALVETAQNNQDAVMPGYTHLQRAQPVTFAHWCLAYVEMLARDESRLQDALKRLDVSPLGCGALAGTAYEIDREQLAGWLGFASATRNSLDSVSDRDHVLELLSAAAIGQVHLSRFAEDLIFFNTGEAGFVELSDRVTSGSSLMPQKKNPDALELIRGKCGRVQGALTGMMMTLKGLPLAYNKDMQEDKEGLFDALDTWLDCLHMAALVLDGIQVKRPRCQEAAQQGYANATELADYLVAKGVPFREAHHIVGEAVVEAIRQGKPLEDLPLSELQKFSQVIDEDVYPILSLQSCLDKRAAKGGVSPQQVAQAIAFAQARLG
B13: hisF V127A (protein)
chain: MLAKRIIPCLDVRDGQVVKGVQFRNHEIIGDIVPLAKRYAEEGADELVFYDITASSDGRVVDKSWVSRVAEVIDIPFCVAGGIKSLEDAAKILSFGADKISINSPALADPTLITRLADRFGVQCIVAGIDTWYDAETGKYHVNQYTGDESRTRVTQWETLDWVQEVQKRGAGEIVLNMMNQDGVRNGYDLEQLKKVREVCHVPLIASGGAGTMEHFLEAFRDADVDGALAASVFHKQIINIGELKAYLATQGVEIRIC
B14: argH F259D (protein)
chain: B12 chain with Q246M, F259D
B15: hisF L176A (protein)
chain: B13 chain with A127V, L176A

Molecular target: Escherichia coli (laboratory strain)
Experiment: barcode share on antibiotic plates over drug-free plates; higher = less susceptible
Conditions: antibiotic: gentamicin; 2× MIC (MIC 0.45 µg/mL)
Protocol: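 A pool of E. coli strains, each edited to carry one amino-acid change in an essential protein, was grown for 48 h on minimal glucose agar with or without antibiotic; strain barcodes were sequenced; mean of two replicates.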

Protein	fold change of barcode share
B1	< 0.0172
B2	> 145 [active]
B3	< 0.0215
B4	< 0.0133
B5	0.014 ± 0.013
B6	> 36.3 [active]
B7	7.35 ± 2.4
B8	> 6870 [active]
B9	> 39.9 [active]
B10	< 0.0164
B11	< 0.0163
B12	< 0.0172
B13	< 0.0172
B14	< 0.0128
B15	0.0659 ± 0.038
